Assay [1] deals with T1, KCTD15 as expressed for the co-immunoprecipitation with Cul3 and HDAC1 (human) (UniProt Q96SI1).
T1 sequence: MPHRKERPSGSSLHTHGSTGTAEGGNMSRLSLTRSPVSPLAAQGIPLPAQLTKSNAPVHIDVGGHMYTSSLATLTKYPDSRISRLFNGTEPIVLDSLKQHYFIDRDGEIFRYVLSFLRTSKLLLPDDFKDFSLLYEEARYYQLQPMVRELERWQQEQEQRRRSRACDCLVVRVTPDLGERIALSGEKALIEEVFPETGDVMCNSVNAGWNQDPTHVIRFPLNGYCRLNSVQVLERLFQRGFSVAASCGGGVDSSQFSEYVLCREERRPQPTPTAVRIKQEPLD
Description: co-IP; lysates of co-transfected HEK293T cells (50 mM Tris-HCl pH 7.6, 1% deoxycholate, 150 mM NaCl, 1% NP40, 5 mM EDTA, 100 mM NaF) incubated with anti-Flag M2 agarose beads 2 h at 4 °C; Western blot. In general terms: Immunoblotting shows a protein as a band on a membrane.

The chains behind the UniProt entries cited, without tags or fusion partners.
UniProt Q13547: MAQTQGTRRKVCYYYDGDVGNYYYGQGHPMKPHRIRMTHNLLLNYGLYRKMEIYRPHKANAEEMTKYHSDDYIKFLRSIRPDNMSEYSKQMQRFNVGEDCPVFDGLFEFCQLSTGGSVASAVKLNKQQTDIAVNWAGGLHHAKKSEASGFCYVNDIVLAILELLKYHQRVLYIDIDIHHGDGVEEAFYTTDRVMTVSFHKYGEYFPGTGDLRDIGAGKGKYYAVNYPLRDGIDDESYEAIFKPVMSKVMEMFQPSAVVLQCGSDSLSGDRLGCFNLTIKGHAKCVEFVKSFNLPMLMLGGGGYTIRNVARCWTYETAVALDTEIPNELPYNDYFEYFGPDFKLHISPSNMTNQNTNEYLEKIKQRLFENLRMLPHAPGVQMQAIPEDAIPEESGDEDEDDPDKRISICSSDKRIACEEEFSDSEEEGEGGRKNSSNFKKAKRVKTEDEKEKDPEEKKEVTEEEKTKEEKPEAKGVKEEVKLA

The target of another assay is T2, BTB-KCASH2-Flag (human) (UniProt Q4G0X4).
T2 sequence: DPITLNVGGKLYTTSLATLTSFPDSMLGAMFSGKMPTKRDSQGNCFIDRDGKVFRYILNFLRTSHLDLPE
The assay is described as above.

Assay [2] has as its target T3, Flag-tagged KCASH2 (human) (UniProt Q4G0X4).
T3 sequence: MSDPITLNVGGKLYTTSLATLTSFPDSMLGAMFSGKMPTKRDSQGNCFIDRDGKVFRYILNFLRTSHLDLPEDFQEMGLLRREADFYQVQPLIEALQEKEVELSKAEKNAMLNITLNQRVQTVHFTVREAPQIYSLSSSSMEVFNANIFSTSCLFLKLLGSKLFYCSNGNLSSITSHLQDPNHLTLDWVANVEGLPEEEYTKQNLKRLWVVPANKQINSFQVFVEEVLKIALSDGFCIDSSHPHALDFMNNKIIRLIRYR
The description is as above.

Assay [3] has as its target HA-tagged KCTD15, full length (human) (UniProt Q96SI1). The description is as above.
A further assay has as its target T4, KCASH3-Flag (human) (UniProt Q8NC69).
T4 sequence: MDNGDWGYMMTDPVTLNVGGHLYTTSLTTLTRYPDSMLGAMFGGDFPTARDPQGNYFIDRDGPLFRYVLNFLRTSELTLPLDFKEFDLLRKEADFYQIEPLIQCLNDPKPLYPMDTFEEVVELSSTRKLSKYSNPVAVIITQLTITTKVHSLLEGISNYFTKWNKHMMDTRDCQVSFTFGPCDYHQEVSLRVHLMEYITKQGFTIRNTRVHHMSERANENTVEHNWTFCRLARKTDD
Described as above.

Assay [4] concerns the target T5, KCASH1-Flag (human), Q693B1.
T5 chain: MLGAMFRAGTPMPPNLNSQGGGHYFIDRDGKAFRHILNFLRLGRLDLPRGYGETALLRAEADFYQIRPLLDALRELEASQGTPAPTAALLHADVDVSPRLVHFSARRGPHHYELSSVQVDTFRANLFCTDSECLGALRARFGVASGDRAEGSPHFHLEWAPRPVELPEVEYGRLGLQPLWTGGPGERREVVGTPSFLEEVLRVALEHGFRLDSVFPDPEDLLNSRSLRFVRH
The description is as above. To be noted: remark: other sources report otherwise.

The next assay has as its target T6, GST-KCASH2 (human) (UniProt Q4G0X4).
T6 sequence: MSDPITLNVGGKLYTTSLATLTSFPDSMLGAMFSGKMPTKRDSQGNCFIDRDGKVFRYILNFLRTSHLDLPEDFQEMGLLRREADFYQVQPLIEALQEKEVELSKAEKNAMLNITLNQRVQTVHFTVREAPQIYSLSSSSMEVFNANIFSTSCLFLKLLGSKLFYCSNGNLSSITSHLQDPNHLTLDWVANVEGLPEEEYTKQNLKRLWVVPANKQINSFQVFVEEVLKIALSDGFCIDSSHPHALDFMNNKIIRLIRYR
Description: pull-down; purified GST-KCASH2 or GST on glutathione-Sepharose 4B, incubated with in vitro translated KCTD15; 20 mM Hepes pH 7.9, 150 mM NaCl, 0.5 mM EDTA, 10% glycerol, 0.1% Tween 20, 4° for 2 h; Western blot with anti-KCTD15; only the target purified.

Results are given in words; binding and its absence hold for the method and conditions named. In cells and extracts the contact can be indirect. Some binding calls cover weakened binding; strength is not graded here. For some of these results: Sequences can lack the tags named with a protein.

Take “HDAC1 (from UniProt Q13547 1-482) (enzyme)”: the binding entry in assay [1] is “no binding”.

B1: HA-tagged KCTD15, full length (protein, UniProt Q96SI1 1-283)
chain: MPHRKERPSGSSLHTHGSTGTAEGGNMSRLSLTRSPVSPLAAQGIPLPAQLTKSNAPVHIDVGGHMYTSSLATLTKYPDSRISRLFNGTEPIVLDSLKQHYFIDRDGEIFRYVLSFLRTSKLLLPDDFKDFSLLYEEARYYQLQPMVRELERWQQEQEQRRRSRACDCLVVRVTPDLGERIALSGEKALIEEVFPETGDVMCNSVNAGWNQDPTHVIRFPLNGYCRLNSVQVLERLFQRGFSVAASCGGGVDSSQFSEYVLCREERRPQPTPTAVRIKQEPLD
Turning to B1, the binding result is “binds” in the assay with BTB-KCASH2-Flag (human), “binds” in assay [2], “binds” in assay [3] and “no binding” with KCASH3-Flag (human).

B2: HA-tagged KCTD15, full length, Q96SI1 1-283 (protein)
chain: MPHRKERPSGSSLHTHGSTGTAEGGNMSRLSLTRSPVSPLAAQGIPLPAQLTKSNAPVHIDVGGHMYTSSLATLTKYPDSRISRLFNGTEPIVLDSLKQHYFIDRDGEIFRYVLSFLRTSKLLLPDDFKDFSLLYEEARYYQLQPMVRELERWQQEQEQRRRSRACDCLVVRVTPDLGERIALSGEKALIEEVFPETGDVMCNSVNAGWNQDPTHVIRFPLNGYCRLNSVQVLERLFQRGFSVAASCGGGVDSSQFSEYVLCREERRPQPTPTAVRIKQEPLD
For B2, the binding result in assay [4] is “no binding”.

B3: in vitro translated (IVT) KCTD15 (protein, UniProt Q96SI1 1-283)
chain: MPHRKERPSGSSLHTHGSTGTAEGGNMSRLSLTRSPVSPLAAQGIPLPAQLTKSNAPVHIDVGGHMYTSSLATLTKYPDSRISRLFNGTEPIVLDSLKQHYFIDRDGEIFRYVLSFLRTSKLLLPDDFKDFSLLYEEARYYQLQPMVRELERWQQEQEQRRRSRACDCLVVRVTPDLGERIALSGEKALIEEVFPETGDVMCNSVNAGWNQDPTHVIRFPLNGYCRLNSVQVLERLFQRGFSVAASCGGGVDSSQFSEYVLCREERRPQPTPTAVRIKQEPLD
modifications: biotin on lysines (Transcent Biotin-Lysyl-tRNA in the translation mix)
Consider B3, for which the binding entry in the assay with GST-KCASH2 (human) was “binds”.
